Test results taken from publication PMC6919601, “Identification of Plasmodium dipeptidyl aminopeptidase allosteric inhibitors by high throughput screening” (PLoS ONE, 2019).
The whole screen tested about 110,000 compounds, of which about 230 (0.21%) showed an effect of 50% or more. The list shows a part of the results.

What follows are compounds tested against DPAP1 (Plasmodium falciparum, UniProt Q8IIJ9) (assay: primary screen, percent inhibition; read by cleavage of a fluorogenic dipeptide substrate; higher = more effect of the substance).
Sequence of DPAP1 (Q8IIJ9 whole entry, looked up): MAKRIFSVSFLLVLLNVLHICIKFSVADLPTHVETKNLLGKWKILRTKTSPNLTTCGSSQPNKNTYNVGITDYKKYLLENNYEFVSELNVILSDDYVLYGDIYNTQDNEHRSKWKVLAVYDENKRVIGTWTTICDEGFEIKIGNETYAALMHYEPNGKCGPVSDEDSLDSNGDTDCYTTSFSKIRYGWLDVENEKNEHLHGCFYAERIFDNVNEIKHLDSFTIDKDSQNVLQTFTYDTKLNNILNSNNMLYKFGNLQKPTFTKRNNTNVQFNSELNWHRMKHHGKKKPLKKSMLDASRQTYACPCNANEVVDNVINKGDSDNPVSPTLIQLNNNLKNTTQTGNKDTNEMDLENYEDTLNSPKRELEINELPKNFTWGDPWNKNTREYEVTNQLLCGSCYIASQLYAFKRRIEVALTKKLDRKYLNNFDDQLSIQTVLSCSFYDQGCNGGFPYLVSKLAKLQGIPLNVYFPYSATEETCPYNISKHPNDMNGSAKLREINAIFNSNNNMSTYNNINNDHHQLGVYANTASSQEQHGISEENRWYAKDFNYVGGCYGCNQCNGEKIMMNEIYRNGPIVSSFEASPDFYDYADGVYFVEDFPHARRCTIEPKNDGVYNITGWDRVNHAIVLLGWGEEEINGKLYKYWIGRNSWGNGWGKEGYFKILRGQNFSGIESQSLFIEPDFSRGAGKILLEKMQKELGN
Set-up: species or system P. falciparum D10 trophozoite lysates; single well
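Note: 30 min substrate incubation versus DMSO and 10 µM JCP410 controls.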

| Structure (SMILES) | % Inhibition @ 10 uM |
| --- | --- |
| COCCNC(=O)CN(c1ccc(C)cc1)S(=O)(=O)c1ccccc1 | -7.39% |
| Oc1cc(-n2cccn2)c(O)c2ccccc12 | 4.32% |
| O=c1[nH]c2ccccc2c(=O)n1CCCN1CCOCC1 | 1.64% |
| O=C(CNC(=O)c1cccs1)NCCc1ccc(Cl)cc1 | -3.12% |
| Nc1ncnc2c1ncn2CCN1CCOCC1 | -1.75% |
| CCn1ncc(CN(C)S(=O)(=O)c2c(C)c(C)c(C)c(C)c2C)c1C | -2.32% |
| CS(=O)(=O)N(CC(=O)NCc1ccccc1)c1ccc(Cl)cc1 | 2.02% |
| COCCCNC(=O)Cn1ncc2ccsc2c1=O | -2.92% |
| CCOC(=O)C1=C(C)N(CC)C(=O)NC1c1ccccc1Cl (centres unmarked) | -3.44% |
| CC(NC(=O)OCc1ccc(F)cc1)(C(F)(F)F)C(F)(F)F | 0.408% |
| Cc1ccc(-n2c(C)nc3sccc3c2=O)cc1 | -4.72% |
| O=C(c1ccccc1)c1ccc2[nH]c(-c3cccc(NC(=O)C4CCCO4)c3)nc2c1 (centres unmarked) | 3.29% |
| COc1cc(NCc2ccsc2)cc(OC)c1 | 3.48% |
| Cc1cccc(OCC(=O)Nc2cc(Cl)ccc2C)c1 | -3.26% |
| Cc1ccc(CN2CCCC(C(=O)N3CCCCCC3)C2)cc1 (centres unmarked) | 0.565% |
| Cn1nnc2c(sc3nc(N4CCOCC4)c4c(c32)CCCC4)c1=O | 3.47% |
| CN1CCCN(Cc2cc(Br)cs2)CC1 | -5.57% |
| CCOC(=O)C1=C(C)N(c2ccc(OC)cc2)C(=O)/C1=C\c1ccco1 | -3.14% |
| CCn1c(CN2CCCCC2)nc2ccccc21 | 3.66% |
| O=C(c1ccccc1)c1ccc(N2CCOCC2)c(F)c1 | 3.44% |
| Cc1ccc(CNC(=O)CNS(=O)(=O)c2ccc(Br)s2)cc1 | 5.1% |
| COc1ccccc1C(=O)N1N=C(C)CC1(O)C(F)(F)F (centres unmarked) | -13.3% |
| O=C1NC(=S)S/C1=C\C=C\c1ccccc1 | -0.828% |
| COc1ccccc1/C=C/CN1CCC(C)CC1 | -3.27% |
| O=C(COc1ccc2ccccc2c1)Nc1ccccc1C(=O)Nc1ccccc1 | 4.3% |
| O=C(CC12CC3CC(CC(C3)C1)C2)NCC(=O)N1CCCC1 | -2.46% |

| Structure (SMILES) | % Inhibition @ 10 uM |
| --- | --- |
| COc1ccc(-n2c(C)nc(=O)c(-c3ccccc3)c2C)cc1 | 1.4% |
| Oc1nc(SC/C=C/c2ccccc2)nc2ccccc12 | 6.4% |
| COc1ccc(CN2CCN(Cc3cccc4ccccc34)CC2)c(OC)c1 | 7.1% |
| Cc1c(CNC(=O)c2nn3c(C(F)(F)F)cc(-c4cccs4)nc3c2Cl)cnn1C | 5.66% |
| Cc1cccc(-c2nc(CSCC(=O)N3CCC(Cc4ccccc4)CC3)c(C)o2)c1 | -1.05% |
| COc1cc(OC)cc(C(=O)Nc2cccc(NC(=O)c3cc(OC)cc(OC)c3)n2)c1 | -2.32% |
| CCN(CC)CCNC(=O)C1c2ccccc2C(=O)N(C)C1c1cn(C)c2ccccc12 (centres unmarked) | 4.63% |
| CS(=O)(=O)N(CC(=O)N1CCCC1)Cc1ccccc1 | -7.32% |
| Cc1ccccc1C(=O)Nc1ccc(C(C)C)cc1 | 0.247% |
| CC(C)(C)c1ccc(C(=O)NC2(C(F)(F)F)C(=O)N(Cc3ccccc3)C3=C2C(=O)CCC3)cc1 (centres unmarked) | 0.221% |
| Cc1ccc(/C=C2\N=C(c3ccc(F)cc3)OC2=O)o1 | -0.617% |
| Fc1ccc(CN2CCN(c3ccc(Cl)cc3)CC2)c(F)c1 | 0.708% |
| C=CCNc1nc(Cl)nc(N(c2ccccc2)c2ccccc2)n1 | 4.98% |
| Cc1ccc(-n2c(S)nnc2-c2cccs2)c(C)c1 | 0.193% |
| CC(=O)OC1CCC2(NC(=O)c3ccccc3)CSC1C2OC(C)=O (centres unmarked) | -0.216% |
| CC(=O)Nc1sc2c(c1C(=O)O)CCc1ccccc1-2 | 6.37% |
| CC1CCN(C2CC(=O)N(c3cc(Cl)cc(Cl)c3)C2=O)CC1 (centres unmarked) | -4.82% |
| Cc1ccc(-c2[nH]nc3c2C(c2ccc(OCC(N)=O)cc2)C(C#N)=C(N)O3)cc1C (centres unmarked) | 1.43% |
| COc1ccc2[nH]c3c(=O)n(Cc4ccc(C(=O)NC5CC5)cc4)c(=S)[nH]c3c2c1 | 4.28% |
| COc1ccccc1C1=NOC(Cn2c(NCc3ccccc3)nc3c2c(=O)n(C)c(=O)n3C)C1 (centres unmarked) | -1.72% |
| O=C(CN(c1ccc(F)cc1)S(=O)(=O)c1ccccc1)Nc1ccccc1Cl | -8.78% |
| O=C(NCc1ccccc1)c1cc(-c2ccc(O)cc2)on1 | -1.96% |
| Cc1cccc(NC(=O)C2c3ccccc3C(=O)N(C)C2c2cccs2)n1 (centres unmarked) | -3.27% |
| Cc1cc(C)c2c3c1C1C=CCC1CN3C(C(=O)O)C1CC=CC21 (centres unmarked) | 3.65% |
| CCCNC(=O)c1cc(-c2ccc(OC)c(OC)c2)nc2ccccc12 | -5.14% |
| CN(C)CCCN(C(=O)c1cc2ccccc2oc1=O)c1nc2ccc(F)cc2s1 | 4.2% |

| Structure (SMILES) | % Inhibition @ 10 uM |
| --- | --- |
| CCOc1cc(/C=N/n2cnnc2)ccc1O | 7.75% |
| Cc1cc(C)c2nc(N3CCCC(C(=O)NCCN4CCCCC4C)C3)sc2c1 (centres unmarked) | 1.8% |
| O=C1C2C3C=CC(C3)C2C(=O)N1c1cccc2ccccc12 (centres unmarked) | -5.07% |
| CC1CCCCN1CCCNc1nc2ccccc2c2nc(-c3cccnc3)nn12 (centres unmarked) | -6.07% |
| CC(CCc1ccco1)NC(=O)Nc1cn(C)c(=O)c2ccccc12 (centres unmarked) | -4.33% |
| N#CC1=C(SCC(=O)c2cc3ccccc3oc2=O)NC(=O)C(C#N)C12CCCC2 (centres unmarked) | 31.6% |
| CCNC(=O)C1CCCN1S(=O)(=O)c1ccc(C)cc1 (centres unmarked) | -1.11% |
| OC1CCN(CC(O)CC(O)(c2ccc(F)cc2)c2ccc(F)cc2)CC1 (centres unmarked) | -7.06% |
| N#Cc1cc2c(nc1SCc1cccnc1)CCCCC2 | 1.03% |
| COc1ccc(CN2CCN(c3ccccn3)CC2)cc1 | -1.77% |
| CCc1ccc(S(=O)(=O)NCc2ccccn2)cc1 | 4.1% |
| C=CCOc1ccc(CNCc2ccccc2Cl)cc1OC | -0.545% |
| Cc1ccc(Cl)cc1/N=C1\SC(CC(=O)Nc2ccc(C(=O)O)cc2)C(=O)N1C (centres unmarked) | -1.17% |
| CC(=O)Nc1ccc(C(=O)Nc2cccc(Cl)c2)cc1 | 0.317% |
| CCOc1cc(C2C(C#N)=C(N)Oc3[nH]nc(-c4cccnc4)c32)ccc1O (centres unmarked) | -4.41% |
| CS(=O)(=O)Nc1ccc(C(=O)c2ccccc2)cc1 | 0.907% |
| CCOc1ccc(/C=C/C(=O)c2ccc(OCC)cc2)cc1 | 2.45% |
| Cc1ccc(NC(=O)Nc2nc3ccc(S(C)(=O)=O)cc3s2)cc1 | 3.05% |
| COc1ccc(-n2c(O)cc(=O)nc2SC)cc1 | 1.38% |
| CC(=O)c1cccc(N2C(=O)c3cccnc3C2=O)c1 | -2.8% |
| Cc1c(C(=O)NCc2cccc(F)c2)oc2ccc3c(c12)C(O)CC1(CCCCC1)O3 (centres unmarked) | -3.47% |
| O=C(Cc1cccc2ccccc12)Nc1nccs1 | -1.38% |
| CC(C)Cn1cc(NC(=O)N2CCC(Cc3ccccc3)CC2)c2ccccc2c1=O | -11.9% |
| CCCC(=O)n1nc2c3c(cccc31)C(=O)c1ccccc1-2 | -2.75% |
| O=C(N/C(=C\c1ccccc1)C(=O)N1CCCCC1)c1cccc(Br)c1 | -4.48% |
| C=CCNc1nc(OC(C(F)(F)F)C(F)(F)F)nc(N(c2ccccc2)c2ccccc2)n1 | -1.76% |

| Structure (SMILES) | % Inhibition @ 10 uM |
| --- | --- |
| Cc1c(CCC(=O)O)c(O)nc2ccccc12 | 4.32% |
| CC(C(=O)NC1CCCCCC1)n1c2ccccc2c2cnn(C)c(=O)c21 (centres unmarked) | 3% |
| N#C/C(=C\c1c(Cl)cccc1Cl)c1ccccc1 | 13% |
| COCc1c(Br)c(C)nc2sc3c(O)nnnc3c12 | 3.94% |
| CCc1ccc([N+]2=C3CCCCN3C(O)(c3ccc(F)cc3)C2)cc1 (centres unmarked) | -1.44% |
| COc1cccc(OCCCCN2CCC(C)CC2)c1 | 3.87% |
| CCOc1ccc(N(CC(=O)NC2CC3CCC2C3)S(=O)(=O)c2ccc(C)cc2)cc1 (centres unmarked) | 3.85% |
| CC1CCN(C(=O)/C(=C\C=C/c2ccccc2)NC(=O)c2ccccc2)CC1 | 5.98% |
| COc1ccc(C(=O)N2CCN(C/C=C/c3ccccc3)CC2)cc1 | -1.38% |
| CCOC(=O)c1cc(S(=O)(=O)NCc2ccc(OC)cc2)cn1C | 2.32% |
| COc1ccc(CNC(=S)Nc2ccccc2)cc1Cl | -5.78% |
| OCC1CCCN(Cc2cccc(Br)c2)C1 (centres unmarked) | -4.4% |
| Cc1ccc(CN2C(=O)c3nccnc3C2=O)cc1 | 0.66% |
| O=C1c2oc3ccccc3c(=O)c2C(c2ccccc2F)N1c1nccs1 (centres unmarked) | -0.828% |
| CCOC(=O)c1c(NC(=O)C(=O)c2c[nH]c3ccccc23)sc2c1CCCC2 | 0.561% |
| COc1ccccc1NC(=O)c1ccc(Cn2nc(C)cc2C)o1 | 5.53% |
| O=C(O)/C=C\C(=O)N1CCN(c2ccc([N+](=O)[O-])cc2)CC1 | -2.7% |
| CCCNC(=O)N(C)Cc1nc(-c2ccc(C)cc2)no1 | 3.27% |
| CCCOc1ccc(C(=O)C2=C(O)C(=O)N(CCN3CCOCC3)C2c2ccc(OC)cc2)c(C)c1 (centres unmarked) | 1.52% |
| OCC1CCCN(Cc2ccc(F)cc2)C1 (centres unmarked) | 0.827% |
| CCOc1cc(/C=C/C(=O)O)ccc1OCc1ccc(Br)cc1 | -3.98% |
| COc1ccc(/C=C(\C#N)c2nc3cc(C)ccc3[nH]2)cc1 | 2.45% |
| COc1cccc(C(=O)N2CCN(c3ccccc3F)CC2)c1OC | -9.45% |
| Cc1ccc(NC(=O)CN2CCN(CC(=O)Nc3ccc(C)cc3)CC2)cc1 | -4.39% |
| CCNC(=O)c1nn(C)c2c1CS(=O)(=O)c1ccccc1-2 | 3.98% |
| CC(C)N(C)CC#CC(O)(c1ccccc1)C1CCCC1 (centres unmarked) | 2.86% |
